Paper PMC7949109, “Trans-2-enoyl-CoA reductase limits Ca^2+ accumulation in the endoplasmic reticulum by inhibiting the Ca^2+ pump SERCA2b” (The Journal of Biological Chemistry, 2021)
Results are given in words; binding and its absence hold for the method and conditions named. In cells and extracts the contact can be indirect. Some results given as binding are weak or reduced against the parent protein; the word gives no strength. For part of these data: Tags and fused reporters may be left off the sequences shown.

Key:
[1] = target: T1, FLAG–TER FL (FLAG-tagged full-length TER), in HEK293 cells (human) (UniProt Q9NZ01); experiment: co-IP; 3xHA-SERCA2b and FLAG-tagged proteins co-transfected into HEK293 cells; Triton X-100 extracts, anti-FLAG mAb 4 °C 2 h; blot with anti-HA mAb
T1 sequence: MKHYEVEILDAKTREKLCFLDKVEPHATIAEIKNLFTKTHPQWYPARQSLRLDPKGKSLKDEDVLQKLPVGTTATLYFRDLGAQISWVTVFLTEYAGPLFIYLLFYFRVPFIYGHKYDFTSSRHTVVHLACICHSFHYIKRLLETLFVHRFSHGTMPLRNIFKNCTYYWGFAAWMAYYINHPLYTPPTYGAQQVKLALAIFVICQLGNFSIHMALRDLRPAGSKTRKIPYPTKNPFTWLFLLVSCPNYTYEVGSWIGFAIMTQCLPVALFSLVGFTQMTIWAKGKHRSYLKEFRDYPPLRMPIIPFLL

[2] = target: T2, FLAG–TER ΔC (TER mutant lacking the C-terminal region, 1–278aa) (human) (UniProt Q9NZ01); experiment: as above
T2 sequence: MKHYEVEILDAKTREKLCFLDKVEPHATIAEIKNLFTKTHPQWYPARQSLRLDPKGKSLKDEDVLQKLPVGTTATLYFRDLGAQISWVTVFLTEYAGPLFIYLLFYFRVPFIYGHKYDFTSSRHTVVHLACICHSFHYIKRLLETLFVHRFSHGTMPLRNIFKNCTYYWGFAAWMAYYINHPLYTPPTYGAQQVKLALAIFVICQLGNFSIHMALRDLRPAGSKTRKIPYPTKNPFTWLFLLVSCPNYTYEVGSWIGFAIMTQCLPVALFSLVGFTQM

[3] = target: T3, FLAG–TER ΔN (TER mutant lacking the N-terminal region, 82–308aa) (human) (UniProt Q9NZ01); experiment: as above
T3 sequence: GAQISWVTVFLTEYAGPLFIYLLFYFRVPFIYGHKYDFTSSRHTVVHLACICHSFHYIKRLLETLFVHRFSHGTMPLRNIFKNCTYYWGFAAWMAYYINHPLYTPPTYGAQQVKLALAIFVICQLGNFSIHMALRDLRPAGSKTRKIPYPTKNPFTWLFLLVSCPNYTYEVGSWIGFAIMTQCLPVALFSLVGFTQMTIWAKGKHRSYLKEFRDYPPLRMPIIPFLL

[4] = target: T4, FLAG–TER-N-term (N-terminal region of TER, 1–81aa) (human) (UniProt Q9NZ01); experiment: as above
T4 sequence: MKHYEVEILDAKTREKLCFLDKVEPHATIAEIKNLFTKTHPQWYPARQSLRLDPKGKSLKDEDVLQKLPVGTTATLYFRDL

[5] = target: T5, GST-TER-C-term (human) (UniProt Q9NZ01); experiment: pull-down; GST proteins (2.8 nmol; 1.9 nmol in Fig. 3D) immobilised on glutathione Sepharose, incubated with Triton X-100 extracts of HEK293 cells expressing 3xHA-SERCA2b, buffer C with 1 mM DTT and 1% Triton X-100, 4 °C 2 h; blot with anti-HA mAb; also cells treated with 1 uM thapsigargin for 90 min (less pulled down by GST-C-term); only the target purified
T5 sequence: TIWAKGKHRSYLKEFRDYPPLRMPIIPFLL

[6] = target: T6, GST-TER-N-term (human) (UniProt Q9NZ01); experiment: as above
T6 sequence: T4 sequence

[7] = target: T7, trans-2-enoyl-CoA reductase (TER), endogenous (human (endogenous in HEK293, primary human keratinocytes, HuH-7)) (UniProt Q9NZ01); experiment: co-IP; 1% DDM extracts of primary human keratinocytes or HuH-7 cells, buffer C; anti-TER pAb or normal rabbit IgG, 4 °C 16 h, Protein G Sepharose; blot with anti-SERCA2b mAb
T7 sequence: T1 sequence

[8] = target: T7, trans-2-enoyl-CoA reductase (TER), endogenous (human (endogenous in HEK293, primary human keratinocytes, HuH-7)); experiment: co-IP; Triton X-100 extracts of HEK293 cells, buffer C (20 mM Tris HCl pH 7.5, 150 mM NaCl, 2 mM MgCl2, 1 mM CaCl2); anti-TER pAb or normal rabbit IgG, 4 °C 16 h, Protein G Sepharose; blot with anti-SERCA2b mAb
[9] = target: T8, Strep-TER (trans-2-enoyl-CoA reductase with an N-terminal Strep-tag) (human) (UniProt Q9NZ01); experiment: pull-down; Strep-TER held on Strep-Tactin Sepharose from Triton X-100 extracts of HEK293 cells, Western blotting with anti-SERCA2b mAb; also cells treated with or without 1 uM thapsigargin for 90 min before lysis (less SERCA2b pulled down)
T8 sequence: T1 sequence

Substance	binding [1]	binding [2]	binding [3]	binding [4]	binding [5]	binding [6]	binding [7]	binding [8]	binding [9]
3xHA-SERCA2b (from UniProt P16615-1 1-1042) (enzyme)	binds	binds weakly	binds	no binding	binds	no binding (tested: 2.8 nmol of GST-TER-N-term on the beads)			
sarco(endo)plasmic reticulum Ca2+-ATPase 2b (SERCA2b), endogenous (from UniProt P16615-1 1-1042) (enzyme)							binds	binds	binds
